# Some of the results follow.
# B1: Threefoil (Haloarcula marismortui) (protein)
# chain: GSSHHHHHHHHHHSSGLVPRGSHMGDGYYKLVARHSGKALDVENASTSDGANVIQYSYSGGDNQQWRLVDLGDGYYKLVARHSGKALDVENASTSDGANVIQYSYSGGDNQQWRLVDLGDGYYKLVARHSGKALDVENASTSDGANVIQYSYSGGDNQQWRLVDL
# How the values were obtained:
# Test in all cases: glycan array binding signal (z-score within array); higher = stronger binding
# Conditions in all cases: glycan notation: IUPAC condensed, linker removed
# Glc(b1-4)Glc = target: Glc(b1-4)Glc
# Outline: (§1)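 Glycan array data came from 3228 arrays in the Consortium for Functional Glycomics database, and only arrays with an available protein sequence were kept. Glycan names were put into IUPAC-condensed notation, and columns mapping to the same glycan were averaged. The binding signal is a within-array Z-score, averaged across arrays of one protein sequence run at different concentrations or buffers and across linkers. A negative Z-score can be read as non-binding.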
# Glc(b1-6)Glc = target: Glc(b1-6)Glc
# Outline: as §1
# GlcA(b1-3)Gal = target: GlcA(b1-3)Gal
# Outline: as §1
# GlcA(b1-3)GlcNAc = target: GlcA(b1-3)GlcNAc
# Outline: as §1
# GlcA(b1-6)Gal = target: GlcA(b1-6)Gal
# Outline: as §1
# [1] = target: GlcA3S(b1-3)Gal(b1-4)GlcNAc(b1-2)Man
# Outline: as §1
# [2] = target: GlcA3S(b1-3)Gal(b1-4)GlcNAc(b1-3)Gal(b1-4)Glc
# Outline: as §1
# [3] = target: GlcNAc(a1-3)Gal(b1-4)GlcNAc
# Outline: as §1
# [4] = target: GlcNAc(a1-4)Gal(b1-3)GlcNAc
# Outline: as §1
# [5] = target: GlcNAc(a1-4)Gal(b1-4)GalNAc
# Outline: as §1
# [6] = target: GlcNAc(a1-4)Gal(b1-4)GlcNAc
# Outline: as §1
# [7] = target: GlcNAc(a1-4)Gal(b1-4)GlcNAc(b1-3)Gal(b1-4)Glc
# Outline: as §1
# [8] = target: GlcNAc(a1-4)Gal(b1-4)GlcNAc(b1-3)Gal(b1-4)GlcNAc
# Outline: as §1
# [9] = target: GlcNAc(a1-4)Gal(b1-4)GlcNAc(b1-3)Gal(b1-4)GlcNAc(b1-3)Gal(b1-4)GlcNAc
# Outline: as §1
# [10] = target: GlcNAc(a1-4)Gal(b1-4)GlcNAc(b1-3)Gal(b1-4)[Fuc(a1-3)]GlcNAc(b1-3)Gal(b1-4)[Fuc(a1-3)]GlcNAc
# Outline: as §1
# [11] = target: GlcNAc(a1-6)Gal(b1-4)GlcNAc
# Outline: as §1
# [12] = target: GlcNAc(b1-2)Gal(b1-3)GalNAc
# Outline: as §1
# [13] = target: GlcNAc(b1-2)Man(a1-3)[GlcNAc(b1-2)Man(a1-6)]Man(b1-4)GlcNAc(b1-4)GlcNAc
# Outline: as §1
# [14] = target: GlcNAc(b1-2)Man(a1-3)[GlcNAc(b1-2)Man(a1-6)]Man(b1-4)GlcNAc(b1-4)[Fuc(a1-6)]GlcNAc
# Outline: as §1
# [15] = target: GlcNAc(b1-2)Man(a1-3)[GlcNAc(b1-4)][GlcNAc(b1-2)Man(a1-6)]Man(b1-4)GlcNAc(b1-4)GlcNAc
# Outline: as §1
# [16] = target: GlcNAc(b1-2)Man(a1-3)[GlcNAc(b1-4)][GlcNAc(b1-2)Man(a1-6)]Man(b1-4)GlcNAc(b1-4)[Fuc(a1-6)]GlcNAc
# Outline: as §1
# [17] = target: GlcNAc(b1-2)[GlcNAc(b1-4)]Man(a1-3)[GlcNAc(b1-2)Man(a1-6)]Man(b1-4)GlcNAc(b1-4)GlcNAc
# Outline: as §1
# [18] = target: GlcNAc(b1-2)[GlcNAc(b1-4)]Man(a1-3)[GlcNAc(b1-4)][GlcNAc(b1-2)Man(a1-6)]Man(b1-4)GlcNAc(b1-4)GlcNAc
# Outline: as §1
# [19] = target: GlcNAc(b1-2)[GlcNAc(b1-4)]Man(a1-3)[GlcNAc(b1-4)][GlcNAc(b1-2)[GlcNAc(b1-6)]Man(a1-6)]Man(b1-4)GlcNAc(b1-4)GlcNAc
# Outline: as §1
# [20] = target: GlcNAc(b1-2)[GlcNAc(b1-4)]Man(a1-3)[GlcNAc(b1-4)][GlcNAc(b1-2)[GlcNAc(b1-6)]Man(a1-6)]Man(b1-4)GlcNAc(b1-4)[Fuc(a1-6)]GlcNAc
# Outline: as §1
# [21] = target: GlcNAc(b1-2)[GlcNAc(b1-6)]Man(a1-6)[GlcNAc(b1-2)Man(a1-3)]Man(b1-4)GlcNAc(b1-4)GlcNAc
# Outline: as §1
# [22] = target: GlcNAc(b1-2)[GlcNAc(b1-6)]Man(a1-6)[GlcNAc(b1-2)Man(a1-3)]Man(b1-4)GlcNAc(b1-4)[Fuc(a1-6)]GlcNAc
# Outline: as §1
# [23] = target: GlcNAc(b1-2)[GlcNAc(b1-6)]Man(a1-6)[GlcNAc(b1-4)][GlcNAc(b1-2)Man(a1-3)]Man(b1-4)GlcNAc(b1-4)GlcNAc
# Outline: as §1
# GlcNAc(b1-3)Fuc = target: GlcNAc(b1-3)Fuc
# Outline: as §1
# GlcNAc(b1-3)Gal = target: GlcNAc(b1-3)Gal
# Outline: as §1
# [24] = target: GlcNAc(b1-3)Gal(b1-3)GalNAc
# Outline: as §1
# GlcNAc(b1-3)Gal(b1-4)Glc = target: GlcNAc(b1-3)Gal(b1-4)Glc
# Outline: as §1
# [25] = target: GlcNAc(b1-3)Gal(b1-4)GlcNAc
# Outline: as §1
# [26] = target: GlcNAc(b1-3)Gal(b1-4)GlcNAc(b1-2)Man(a1-3)[GlcNAc(b1-3)Gal(b1-4)GlcNAc(b1-2)Man(a1-6)]Man(b1-4)GlcNAc(b1-4)GlcNAc
# Outline: as §1
# [27] = target: GlcNAc(b1-3)Gal(b1-4)GlcNAc(b1-2)Man(a1-3)[GlcNAc(b1-3)Gal(b1-4)GlcNAc(b1-2)Man(a1-6)]Man(b1-4)GlcNAc(b1-4)[Fuc(a1-6)]GlcNAc
# Outline: as §1
# [28] = target: GlcNAc(b1-3)Gal(b1-4)GlcNAc(b1-2)[GlcNAc(b1-3)Gal(b1-4)GlcNAc(b1-6)]Man(a1-6)[GlcNAc(b1-3)Gal(b1-4)GlcNAc(b1-2)Man(a1-3)]Man(b1-4)GlcNAc(b1-4)GlcNAc
# Outline: as §1
# [29] = target: GlcNAc(b1-3)Gal(b1-4)GlcNAc(b1-3)Gal(b1-4)GlcNAc
# Outline: as §1
# [30] = target: GlcNAc(b1-3)Gal(b1-4)GlcNAc(b1-3)Gal(b1-4)GlcNAc(b1-2)Man(a1-3)[GlcNAc(b1-3)Gal(b1-4)GlcNAc(b1-3)Gal(b1-4)GlcNAc(b1-2)Man(a1-6)]Man(b1-4)GlcNAc(b1-4)GlcNAc
# Outline: as §1
# [31] = target: GlcNAc(b1-3)Gal(b1-4)GlcNAc(b1-3)Gal(b1-4)GlcNAc(b1-2)Man(a1-3)[GlcNAc(b1-3)Gal(b1-4)GlcNAc(b1-3)Gal(b1-4)GlcNAc(b1-2)Man(a1-6)]Man(b1-4)GlcNAc(b1-4)[Fuc(a1-6)]GlcNAc
# Outline: as §1
# [32] = target: GlcNAc(b1-3)Gal(b1-4)GlcNAc(b1-3)Gal(b1-4)GlcNAc(b1-2)[GlcNAc(b1-3)Gal(b1-4)GlcNAc(b1-3)Gal(b1-4)GlcNAc(b1-6)]Man(a1-6)[GlcNAc(b1-3)Gal(b1-4)GlcNAc(b1-3)Gal(b1-4)GlcNAc(b1-2)Man(a1-3)]Man(b1-4)GlcNAc(b1-4)[Fuc(a1-6)]GlcNAc
# Outline: as §1
# [33] = target: GlcNAc(b1-3)Gal(b1-4)GlcNAc(b1-3)Gal(b1-4)GlcNAc(b1-3)Gal(b1-4)GlcNAc(b1-2)Man(a1-3)[GlcNAc(b1-3)Gal(b1-4)GlcNAc(b1-3)Gal(b1-4)GlcNAc(b1-3)Gal(b1-4)GlcNAc(b1-2)Man(a1-6)]Man(b1-4)GlcNAc(b1-4)GlcNAc
# Outline: as §1
# [34] = target: GlcNAc(b1-3)Gal(b1-4)GlcNAc(b1-3)Gal(b1-4)GlcNAc(b1-3)Gal(b1-4)GlcNAc(b1-2)Man(a1-3)[GlcNAc(b1-3)Gal(b1-4)GlcNAc(b1-3)Gal(b1-4)GlcNAc(b1-3)Gal(b1-4)GlcNAc(b1-2)Man(a1-6)]Man(b1-4)GlcNAc(b1-4)[Fuc(a1-6)]GlcNAc
# Outline: as §1
# [35] = target: GlcNAc(b1-3)Gal(b1-4)GlcNAc(b1-3)Gal(b1-4)GlcNAc(b1-3)Gal(b1-4)GlcNAc(b1-2)[GlcNAc(b1-3)Gal(b1-4)GlcNAc(b1-3)Gal(b1-4)GlcNAc(b1-3)Gal(b1-4)GlcNAc(b1-6)]Man(a1-6)[GlcNAc(b1-3)Gal(b1-4)GlcNAc(b1-3)Gal(b1-4)GlcNAc(b1-3)Gal(b1-4)GlcNAc(b1-2)Man(a1-3)]Man(b1-4)GlcNAc(b1-4)[Fuc(a1-6)]GlcNAc
# Outline: as §1
# [36] = target: GlcNAc(b1-3)Gal(b1-4)GlcNAc(b1-3)Gal(b1-4)GlcNAc(b1-3)Gal(b1-4)GlcNAc(b1-3)Gal(b1-4)GlcNAc(b1-2)Man(a1-3)[GlcNAc(b1-3)Gal(b1-4)GlcNAc(b1-3)Gal(b1-4)GlcNAc(b1-3)Gal(b1-4)GlcNAc(b1-3)Gal(b1-4)GlcNAc(b1-2)Man(a1-6)]Man(b1-4)GlcNAc(b1-4)GlcNAc
# Outline: as §1
# [37] = target: GlcNAc(b1-3)Gal(b1-4)GlcNAc(b1-3)Gal(b1-4)GlcNAc(b1-3)Gal(b1-4)GlcNAc(b1-3)Gal(b1-4)GlcNAc(b1-2)Man(a1-3)[GlcNAc(b1-3)Gal(b1-4)GlcNAc(b1-3)Gal(b1-4)GlcNAc(b1-3)Gal(b1-4)GlcNAc(b1-3)Gal(b1-4)GlcNAc(b1-2)Man(a1-6)]Man(b1-4)GlcNAc(b1-4)[Fuc(a1-6)]GlcNAc
# Outline: as §1
binder,measurement,setting,value
B1,glycan array binding signal (z-score),Glc(b1-4)Glc,-0.247
same,glycan array binding signal (z-score),Glc(b1-6)Glc,-0.209
same,glycan array binding signal (z-score),GlcA(b1-3)Gal,-0.209
same,glycan array binding signal (z-score),GlcA(b1-3)GlcNAc,-0.238
same,glycan array binding signal (z-score),GlcA(b1-6)Gal,-0.222
same,glycan array binding signal (z-score),[1],-0.248
same,glycan array binding signal (z-score),[2],-0.293
same,glycan array binding signal (z-score),[3],-0.322
same,glycan array binding signal (z-score),[4],-0.176
same,glycan array binding signal (z-score),[5],-0.271
same,glycan array binding signal (z-score),[6],-0.161
same,glycan array binding signal (z-score),[7],-0.253
same,glycan array binding signal (z-score),[8],-0.319
same,glycan array binding signal (z-score),[9],-0.208
same,glycan array binding signal (z-score),[10],-0.07
same,glycan array binding signal (z-score),[11],-0.15
same,glycan array binding signal (z-score),[12],-0.251
same,glycan array binding signal (z-score),[13],-0.259
same,glycan array binding signal (z-score),[14],-0.176
same,glycan array binding signal (z-score),[15],-0.246
same,glycan array binding signal (z-score),[16],-0.223
same,glycan array binding signal (z-score),[17],-0.222
same,glycan array binding signal (z-score),[18],-0.145
same,glycan array binding signal (z-score),[19],-0.028
same,glycan array binding signal (z-score),[20],-0.103
same,glycan array binding signal (z-score),[21],-0.27
same,glycan array binding signal (z-score),[22],-0.222
same,glycan array binding signal (z-score),[23],-0.143
same,glycan array binding signal (z-score),GlcNAc(b1-3)Fuc,-0.283
same,glycan array binding signal (z-score),GlcNAc(b1-3)Gal,-0.29
same,glycan array binding signal (z-score),[24],-0.263
same,glycan array binding signal (z-score),GlcNAc(b1-3)Gal(b1-4)Glc,-0.299
same,glycan array binding signal (z-score),[25],-0.26
same,glycan array binding signal (z-score),[26],-0.105
same,glycan array binding signal (z-score),[27],-0.052
same,glycan array binding signal (z-score),[28],-0.215
same,glycan array binding signal (z-score),[29],-0.349
same,glycan array binding signal (z-score),[30],-0.166
same,glycan array binding signal (z-score),[31],-0.012
same,glycan array binding signal (z-score),[32],-0.21
same,glycan array binding signal (z-score),[33],-0.169
same,glycan array binding signal (z-score),[34],0.158
same,glycan array binding signal (z-score),[35],-0.157
same,glycan array binding signal (z-score),[36],-0.119
same,glycan array binding signal (z-score),[37],0.011
